Here are results for four molecules from US20240209061A1 (Pfizer, published 2024).

Residue numbers refer to the chain shown, from its start. Names may count otherwise. “And” between values parts separate entries of the source, which are not always exact repeats. Equal values may be shown once. Read-outs that look alike come from different tables or passages of the source. Some results are limits rather than exact numbers.

For assay [1], the target named is T1, CD28 expressed on Jurkat T cell line / human T cells (human, UniProt P10747 19-220). Briefly: cell-based or functional assay.
Assay [2] deals with T1, CD28 expressed on Jurkat T cell line / …. Briefly: cell-based or functional assay. This is another data set of the same source.
Assay [3] shares this target. Nature of the assay: cell-based or functional assay. The source holds these as a separate data set.
The target is the same in assay [4]. Nature of the assay: cell-based or functional assay. The source holds these as a separate data set.
Assay [5] shares this target. Nature of the assay: cell-based or functional assay. The source holds these as a separate data set.
For assay [6] the target is unchanged. Briefly: cell-based or functional assay. The source holds these as a separate data set.
For assay [7] the target is unchanged. Nature of the assay: cell-based or functional assay. This is another data set of the same source.
The target in assay [8] is T2, insulin.
T2 construct: Polyspecificity reagent
T2 sequence (P01308 25-54, chain 1 of 2): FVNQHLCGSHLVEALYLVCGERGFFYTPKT
T2 sequence (P01308 90-110, chain 2 of 2): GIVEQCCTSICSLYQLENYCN
Nature of the assay: insulin-binding ELISA (non-specific binding). The method, then:
(§1) Variant CD80-Fc fusion proteins were assessed by measuring non-specific binding using a DNA- and insulin-binding ELISA (Avery et al., MAbs. 2018 February/March; 10(2): 244-255) and for self-interaction in an AC-SINS assay (affinity-capture self-interaction nanoparticle spectroscopy; Liu et al., 2014, mAbs 6:483-92). DNA- and insulin-binding scores were calculated as the signal ratio of the ELISA signal of the CD80-Fc fusion protein at 10 μg/ml to the ELISA signal in the absence of the Fc-fusion protein (buffer only). For the AC-SINS assay, proteins are captured by anti-human Fc antibodies coated on gold nanoparticles. […] The score ranges obtained from these in vitro assays correlate well with in vivo clearance using huFcRn transgenic (Tg32) mouse. Therapeutic proteins with high scores are at high risk for rapid clearance and unfavorable PK and therapeutics that score low are at low risk and favorable PK.
On the technique in general: In an ELISA, binding on a coated surface is turned into a signal by an enzyme label.

Assay [9] has as its target T2, insulin. Briefly: insulin-binding ELISA (non-specific binding). Here is the method:
as §1
This is another data set of the same source.

Assay [10] deals with T1, CD28 expressed on Jurkat T cell line / …. Nature of the assay: flow cytometry on Jurkat cells, PE anti-human Fc detection. The method, then: (§2) Binding affinity of CD80-Fc fusion proteins (WT and variant) against CD28 expressed on Jurkat T cell line (ATCC TIB-152) was measured by flow cytometry. Jurkat cells (100,000 cells suspended in 100 μL PBS supplemented with 0.5% BSA, 2 mM EDTA, and 10% normal goat serum) were incubated with CD80-Fc fusion proteins at concentrations ranging 0.025-500 nM on ice for 30 minutes. Cells were then washed with PBS supplemented with 0.5% BSA and 2 mM EDTA twice. […] Afterward, cells were washed with PBS supplemented with 0.5% BSA and 2 mM EDTA twice. Finally, cells were suspended in PBS containing 0.5 μg/mL 7-amino-actinomycin D and acquired on BD LSRFortessa X-20 flow cytometer. Data were analyzed by Flowjo v10 software (Flowjo, LLC). FIG. 3 and Table 1 show the binding affinity of CD80-Fc fusion proteins (WT and variants) against CD28 expressed on Jurkat cells.
(In general: In flow cytometry, cells or beads pass a laser one at a time.)

Assay [11] concerns the target T3, human PD-L1 (human, UniProt Q9NZQ7 in part, limits assumed).
T3 construct: also called immobilized human PD-L1
Briefly: SPR (Biacore), human PD-L1 immobilised, CD80-Fc as analyte. On the technique in general: SPR reads the build-up and loss of mass on a sensor chip optically.

Assay [12] addresses T4, recombinant soluble human CD28 (human, UniProt P10747 19-152).
T4 construct: Called only 'recombinant soluble'; also called soluble CD28
Nature of the assay: SPR (Biacore 8K+, 37 C), CD28 immobilised, CD80-Fc as analyte; bivalent apparent KD ± SE. The method, then:
(§3) Binding affinity of CD80-Fc fusion proteins against recombinant soluble CD28 and CTLA-4 proteins was determined by surface plasmon resonance (SPR) using a Biacore 8K+ instrument at 37° C. (physiologic temperature) with a collection rate of 10 Hz. Purified soluble ligands were covalently coupled onto a CM5 sensor chip using an Amine coupling Kit (GE Healthcare, Product #BR100050) following the manufacturer's recommendations. Three-fold serial dilutions of the CD80-Fc fusion protein analytes in HBS-EP+ running buffer (10 mM HEPES pH 7.4, 0.15 M NaCl, 3 mM EDTA, 0.05% P-20), ranging in concentration from 900 nM to 11.1 nM, were injected for 55 sec over the directly immobilized ligands at a flow rate of 50 μLs/min. The flow was again returned to running buffer and dissociation was monitored for 300 sec.

In assay [13] the target is T5, recombinant soluble rat CD28 (rat, UniProt P31042 20-150, limits assumed). Described as above. The method, then:
as §3

The target of assay [14] is T6, recombinant soluble mouse CD28 (mouse, UniProt P31041 20-150, limits assumed). Described as above. The method, then: as §3
In assay [15] the target is T4, recombinant soluble human CD28. Described as above. Here is the method:
as §3
This is another data set of the same source.

The target in assay [16] is T5, recombinant soluble rat CD28. The assay is described as above. The method, then:
as §3
This is another data set of the same source.

Assay [17] concerns the target T6, recombinant soluble mouse CD28. The assay is described as above. The method, then:
as §3
The source holds these as a separate data set.

Assay [18] concerns the target T7, recombinant soluble human CTLA-4 (human, UniProt P16410 36-161). Briefly: SPR (Biacore 8K+, 37 C), CTLA-4 immobilised, CD80-Fc as analyte; bivalent apparent KD ± SE. Here is the method: as §3
The target of assay [19] is T8, recombinant soluble rat CTLA-4 (rat, UniProt Q62859 36-161). The assay is described as above. Here is the method:
as §3

Assay [20] addresses T9, recombinant soluble mouse CTLA-4 (mouse, UniProt P09793 36-161, limits assumed). The description is as above. Here is the method:
as §3

Assay [21] concerns the target T7, recombinant soluble human CTLA-4. Described as above. The method, then: as §3
The source holds these as a separate data set.

Assay [22] deals with T8, recombinant soluble rat CTLA-4. The description is as above. Here is the method:
as §3
This is another data set of the same source.

In assay [23] the target is T9, recombinant soluble mouse CTLA-4. Described as above. The method, then: as §3
T9 sequence (P09793 36-161 limits assumed): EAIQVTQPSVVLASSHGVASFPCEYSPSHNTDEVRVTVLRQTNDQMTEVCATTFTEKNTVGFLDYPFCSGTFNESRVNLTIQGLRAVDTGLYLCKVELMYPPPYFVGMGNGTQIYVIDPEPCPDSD
This is another data set of the same source.

In assay [24] the target is T4, recombinant soluble human CD28. Nature of the assay: SPR (Biacore 8K+, 37 C), human CD28 immobilised. The method, then:
as §3

Assay [25] deals with T3, human PD-L1. Nature of the assay: SPR (Biacore): human PD-L1 immobilised at 60 ug/ml on the chip, CD80-Fc injected at 11.1-900 nM.
T3 sequence (Q9NZQ7 19-238 limits assumed): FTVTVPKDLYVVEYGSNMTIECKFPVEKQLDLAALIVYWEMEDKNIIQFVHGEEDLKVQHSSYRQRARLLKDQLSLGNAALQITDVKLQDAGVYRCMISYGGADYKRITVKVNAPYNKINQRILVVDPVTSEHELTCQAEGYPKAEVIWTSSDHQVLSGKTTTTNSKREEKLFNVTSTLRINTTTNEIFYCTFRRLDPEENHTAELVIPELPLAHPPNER
Assay [26] addresses T1, CD28 expressed on Jurkat T cell line / …. Nature of the assay: flow cytometry on Jurkat cells (CD28), CD80-Fc 0.025-500 nM on ice, PE goat anti-human Fc. Here is the method: as §2

T5 sequence (P31042 20-150 limits assumed): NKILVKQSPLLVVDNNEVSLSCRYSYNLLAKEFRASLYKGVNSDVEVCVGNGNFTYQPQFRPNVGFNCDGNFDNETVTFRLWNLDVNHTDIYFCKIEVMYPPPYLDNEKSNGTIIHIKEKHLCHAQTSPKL
T7 sequence (P16410 36-161 limits assumed): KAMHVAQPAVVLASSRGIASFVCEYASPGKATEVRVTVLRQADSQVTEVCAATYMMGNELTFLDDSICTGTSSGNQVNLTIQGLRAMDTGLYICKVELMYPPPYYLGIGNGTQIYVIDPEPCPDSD
T8 sequence (Q62859 entry or part of it limits assumed): as the sequence (P09793 36-161 limits assumed) above, with S26A, P27S, M46V, E56V, V60L, Y65D, V87A, L93F counted along it
T6 sequence (P31041 20-150 limits assumed): as the sequence (P31042 20-150 limits assumed) above, with N15S, P62S, V64A, G65E, N71D, D85H, V98F, K109R, A125T, T127S counted along it

B1: CD80-WT-Fc (Fc fusion)
chain: VIHVTKEVKEVATLSCGHNVSVEELAQTRIYWQKEKKMVLTMMSGDMNIWPEYKNRTIFDITNNLSIVILALRPSDEGTYECVVLKYEKDAFKREHLAEVTLSVKADFPTPSISDFEIPTSNIRRIICSTSGGFPEPHLSWLENGEELNAINTTVSQDPETELYAVSSKLDFNMTTNHSFMCLIKYGHLRVNQTFNWNTTKQEHFPDN[sequence of human IgG1 Fc with C220S (EU numbers) omitted]
notes: also called WT CD80-Fc; wild-type CD80-Fc fusion protein
On to B1, for which the “EC50, IL-2 release, primary T cell and HCT116-CD64 co-culture” value in assay [1] is 114 ng/mL and 1.15 nM. Also, the “EC50, luciferase reporter, Jurkat-IL-2-Luc and HCT116-CD64 co-culture” value in assay [2] is 82.5 ng/mL and 0.836 nM. Moreover, in assay [3], the “EC50, luciferase reporter, Jurkat-NYESO1-IL-2-Luc and A375-CD64 co-culture” value was 38.9 ng/mL and 0.394 nM. In addition, the “EC50, luciferase reporter, Jurkat-CTLA-4-IL-2-Luc and HCT116-CD64 co-culture” value in assay [4] is 0.0014 µM. The “Fold-increase over background (CD3 stimulation alone), Jurkat IL-2 reporter assay” value (shortened to “Fold-increase over background”) in [5] stood at 3.6 fold. Moreover, the “IL-2 EC50, human PBMC assay with plate-bound anti-CD3 (average of 5 donors)” value in assay [6] was 0.0236 µM. The “IL-2 EC50, human PBMC assay, donor 379, anti-CD3 1 ug/ml” value in assay [7] came out at 0.041 µM. The “IL-2 EC50, human PBMC assay, donor 418, anti-CD3 0.3 ug/ml” value in [7] was 0.00624 µM. Further, the “Insulin Score” value with insulin [8] and with insulin [9] was 1 ratio of ELISA signal at 10 µg/ml to buffer only in each case. The Kd in assay [10] was 0.162 µM; with human PD-L1 [11] it was greater than 1 µM; in assay [12] it was 2.31 µM; in assay [13] it was 0.823 µM; in assay [14], 1.15 µM; in [15] it was 1.69 µM. The Kd in assay [16] was 0.827 µM; in [17], 1.37 µM; in [18], 0.0961 µM; in assay [19], 0.0504 µM; in [20], 0.132 µM; in assay [21] it was 0.108 µM. In addition, the Kd in assay [22] came out at 0.0626 µM; in [23], 0.126 µM.

B2: CD80-K89D-D90K-T28V-T57V-Fc (Fc fusion)
chain: B1 chain with T28V, T57V, K89D, D90K
notes: Non-cysteine stabilized variant
B2: the “Fold-increase over background” value in assay [5] came out at 7.75 fold. In addition, the “IL-2 EC50, human PBMC assay, donor 379, anti-CD3 1 ug/ml” value in assay [7] came out at 0.00352 µM. Also, the “fold increase of affinity over WT CD80-Fc fusion protein” value in [24] stood at 18 fold. Further, the “Insulin Score” value in the assay with insulin [9] is 1 ratio of ELISA signal at 10 µg/ml to buffer only. Further, the Kd in assay [15] stood at 0.0924 µM; in assay [16], 0.375 µM; in [17], 0.478 µM; in [21], 0.115 µM; in assay [22], 0.126 µM; in assay [23], 0.211 µM. Also, in the assay with human PD-L1 [25], the binding result was “no binding (tested: 900 nM)”.

B3: CD80-K89Q-D90Q-Fc (Fc fusion)
chain: B1 chain with K89Q, D90Q
Take B3: the “EC50, IL-2 release, primary T cell and HCT116-CD64 co-culture” value in assay [1] is 43.3 ng/mL and 0.46 nM. Moreover, the “EC50, luciferase reporter, Jurkat-IL-2-Luc and HCT116-CD64 co-culture” value in [2] was 17.7 ng/mL and 0.179 nM. In addition, the “EC50, luciferase reporter, Jurkat-NYESO1-IL-2-Luc and A375-CD64 co-culture” value in assay [3] was 11.5 ng/mL and 0.116 nM. The “EC50, luciferase reporter, Jurkat-CTLA-4-IL-2-Luc and HCT116-CD64 co-culture” value in assay [4] was 0.0008 µM. Besides, the “IL-2 EC50, human PBMC assay with plate-bound anti-CD3 (average of 5 donors)” value in [6] was 0.00612 µM. Also, the “Insulin Score” value with insulin [8] is 2 ratio of ELISA signal at 10 µg/ml to buffer only. For the same molecule, the Kd in assay [10] was 0.023 µM. For the same molecule, the “EC50 (read off the curve)” value in assay [26] was roughly 0.03 µM.

B4: CD80-K89Q-D90Q-E23C-A26C-Fc (Fc fusion)
chain: B1 chain with E23C, A26C, K89Q, D90Q
notes: Disulfide stabilized variant; also called CD80-Fc K89Q-D90Q-E23C-A26C
As for B4, the “Fold-increase over background” value in [5] was 6 fold. Also, in assay [6], the “IL-2 EC50, human PBMC assay with plate-bound anti-CD3 (average of 5 donors)” value is 0.0115 µM. Besides, the “Insulin Score” value in the assay with insulin [8] is 1 ratio of ELISA signal at 10 µg/ml to buffer only. Moreover, the Kd in assay [12] worked out at 1.1 µM; in assay [13] it was 0.856 µM; in [14], 0.955 µM; in [18] it was 0.291 µM; in [19], 0.205 µM; in assay [20], 0.407 µM.

For orientation: EC50 (read off the curve) means the concentration that produces a half-maximal response.
